{
  "source": "PubChem BioAssay (NCATS)",
  "note": "The shares of active, inactive and inconclusive entries below differ from those in the screen. No potency is given beside an inconclusive call; the fits are too rough. The source made the active and inactive calls. Calls follow the shape of the dose curve; as a rule, active = well fitted inhibition curve with a large enough effect; inconclusive = small, poorly fitted or top-dose-only effect; inactive = no such curve, though single readings can be large or run the other way. Potency is read from the fitted curve at half-maximal effect; tags tell the direction and shape of the fitted curve.",
  "data": [
    {"target": "Rap guanine nucleotide exchange factor 3 (Homo sapiens) (UniProt O95398)", "sequence (O95398 whole entry, looked up)": "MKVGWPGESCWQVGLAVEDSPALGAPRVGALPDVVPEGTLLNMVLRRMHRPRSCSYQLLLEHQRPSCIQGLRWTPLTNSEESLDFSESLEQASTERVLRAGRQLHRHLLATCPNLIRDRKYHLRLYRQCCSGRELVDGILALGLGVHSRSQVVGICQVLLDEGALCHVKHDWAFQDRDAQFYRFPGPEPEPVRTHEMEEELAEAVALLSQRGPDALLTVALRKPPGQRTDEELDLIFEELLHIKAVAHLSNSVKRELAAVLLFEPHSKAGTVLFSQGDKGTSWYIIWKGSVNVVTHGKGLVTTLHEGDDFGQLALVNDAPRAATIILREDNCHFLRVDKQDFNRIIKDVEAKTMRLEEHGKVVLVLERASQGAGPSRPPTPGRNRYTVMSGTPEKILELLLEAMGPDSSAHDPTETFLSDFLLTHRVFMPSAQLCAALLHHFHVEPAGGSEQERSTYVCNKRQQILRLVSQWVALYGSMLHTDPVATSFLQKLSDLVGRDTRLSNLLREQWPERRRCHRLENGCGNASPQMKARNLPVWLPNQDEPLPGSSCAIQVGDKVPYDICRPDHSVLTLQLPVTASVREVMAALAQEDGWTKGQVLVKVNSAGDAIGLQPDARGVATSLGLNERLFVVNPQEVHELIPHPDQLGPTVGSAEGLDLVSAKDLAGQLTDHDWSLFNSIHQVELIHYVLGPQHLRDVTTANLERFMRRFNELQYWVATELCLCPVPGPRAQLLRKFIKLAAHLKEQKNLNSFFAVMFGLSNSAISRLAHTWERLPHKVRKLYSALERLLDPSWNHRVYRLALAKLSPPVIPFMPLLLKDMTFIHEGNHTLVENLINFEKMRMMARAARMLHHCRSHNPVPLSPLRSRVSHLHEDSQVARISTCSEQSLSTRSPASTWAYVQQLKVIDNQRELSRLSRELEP", "experiment": "Confirmatory qHTS for antagonist of cAMP-regulated guanine nucleotide exchange factor 3 (EPAC1) (AID 1645880); also: nearly all actives have a fitted effect of over 55% in size;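 as to activity, negative = inhibition: plate controls were DMSO only for no effect and full effect of the ATA control for full effect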", "settings": "EPAC1 Rap1B-BODIPY-GDP exchange, fluorescence; activity, negative = inhibition: at 115 µM (top of the series)", "in_short": "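Released BODIPY-GDP fluoresces less than Rap1-bound BODIPY-GDP; the signal is followed at 480/540 nm at 5-min intervals over 30 min, after 5 min at room temperature. Reactions contain 100 nM EPAC1, 250 nM RAP1B-BODIPY-GDP and 50 uM GDP; results are normalized to ATA and DMSO.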", "values": [
      {"compound": "CCc1cc(-c2n[nH]c(C)c2-c2nc(C)cs2)c(O)cc1OC", "Potency": "inconclusive [inhibitor, partial curve, poor fit]"},
      {"compound": "COC(=O)c1cc(Sc2c(Cl)cccc2Cl)ccn1", "Potency": "inconclusive [inhibitor, partial curve, poor fit]"},
      {"compound": "O=C1CCC[C@@H]2CC(N(Cc3cc4ccccc4s3)c3ccccc3)C[C@@H]3CCN1[C@H]23", "note": "(some centres undefined)", "Potency": "inconclusive [inhibitor, partial curve, poor fit]"},
      {"compound": "CCC(CC)c1nnc(NC(=O)CSCc2c(C)noc2C)s1", "Potency": "inconclusive [inhibitor, partial curve, poor fit]"},
      {"compound": "CC1CC(C)CN(C(=O)c2cccc(S(=O)(=O)Nc3cc(C(F)(F)F)ccc3Cl)c2)C1", "note": "(centres undefined)", "Potency": "active: 13.5 µM"},
      {"compound": "Cc1ccc(F)c(S(=O)(=O)NC(=O)C2(C)CCN2C(=O)C2(c3ccc(Cl)cc3)CCC2)c1", "note": "(centres undefined)", "Potency": "inconclusive [inhibitor, partial curve]"},
      {"compound": "O=C(CNC(=O)c1sc2ccccc2c1Cl)Nc1ccccc1F", "activity, negative = inhibition": "inactive: -3.37%"},
      {"compound": "O=C(COC(=O)c1ccc([N+](=O)[O-])s1)NCc1ccccc1", "Potency": "inconclusive [inhibitor, partial curve]"},
      {"compound": "CCC(NC(=O)c1ccccc1NC(=O)c1ccco1)C(=O)NNC(=O)c1ccc(OC)cc1", "note": "(centres undefined)", "Potency": "inconclusive [inhibitor, partial curve, poor fit]"},
      {"compound": "COc1ccccc1Cc1c(-c2ccco2)nc2c(C)cc(Br)cn12", "Potency": "inconclusive [inhibitor, partial curve]"},
      {"compound": "CCC/C=C/c1ccc(CN2C(CC(C)C)C(=O)N(Cc3cn(CCC4OCCO4)nn3)CCS2(=O)=O)cc1", "note": "(centres undefined)", "Potency": "active: 37.9 µM"},
      {"compound": "CC(C)(C)NC(=O)COC(=O)c1c2c(nc3ccccc13)CCC2", "Potency": "inconclusive [inhibitor, partial curve]"},
      {"compound": "CCCc1nc2ccccc2c(=O)n1/N=C/c1ccccc1O", "Potency": "active: 37.9 µM"},
      {"compound": "O=C1CC(c2c(F)cccc2Cl)c2c(ccc3ccccc23)N1", "note": "(centres undefined)", "activity, negative = inhibition": "inconclusive: -32% [inhibitor]"},
      {"compound": "COc1ccccc1CNC(=O)C1(C)CCN1Cc1ccc2ccccc2c1", "note": "(centres undefined)", "Potency": "inconclusive [inhibitor, partial curve, poor fit]"},
      {"compound": "CN1CCN(C(=O)c2ccc(COc3ccc(C(C)(C)C)cc3)o2)CC1", "Potency": "inconclusive [inhibitor, partial curve, poor fit]"},
      {"compound": "C=CCN1C(=O)/C(=C/c2ccc(OC(C)=O)c(OCC)c2[N+](=O)[O-])SC1=S", "Potency": "inconclusive [inhibitor, partial curve]"},
      {"compound": "CCc1c(O)cc(=O)n(-c2ccccc2)c1-c1ccccc1", "Potency": "inconclusive [inhibitor, partial curve, poor fit]"},
      {"compound": "CN(C)c1ccccc1C(=O)N1CCCC(C(=O)c2ccc3ccccc3c2)C1", "note": "(centres undefined)", "activity, negative = inhibition": "inactive: -29.7%"},
      {"compound": "O=c1[nH]n2c(=O)c3c([nH]c2c1N=Nc1cccc(Cl)c1)CCCC3", "Potency": "inconclusive [inhibitor, full curve]"},
      {"compound": "CN(C)c1ccc(/C=C/c2ccnc3ccc4ccccc4c23)cc1", "Potency": "active: 49.8 µM"},
      {"compound": "CC(C)C(=O)NC(c1ccccc1)c1cc([N+](=O)[O-])c2cccnc2c1O", "note": "(centres undefined)", "Potency": "inconclusive [inhibitor, partial curve]"},
      {"compound": "CC(=O)OC1CC2C(C)(C)CCC(=O)[C@@]2(C)C2CC[C@@]3(C)C(c4ccoc4)OC(=O)C4OC43[C@]12C", "note": "(some centres undefined)", "activity, negative = inhibition": "inactive: -4.11%"},
      {"compound": "Cc1ccc(S(=O)(=O)/N=C2/NC(=O)/C(=C/c3ccccc3)S2)cc1", "Potency": "active: 42.6 µM"},
      {"compound": "O=C(N/N=C/c1ccccc1O)c1cccc(C(F)(F)F)c1", "Potency": "inconclusive [inhibitor, full curve]"},
      {"compound": "O=C1[C@H](Cc2ccccc2)NCCCC[C@H](c2ccco2)N1Cc1ccccc1", "activity, negative = inhibition": "inactive: -9.76%"},
      {"compound": "COc1ccc(C2=CC(=O)C[C@H](COCc3ccccc3)N(C(=O)OC(C)(C)C)O2)cc1", "activity, negative = inhibition": "inactive: -16.2%"},
      {"compound": "CCC(=O)N(CCC(c1ccco1)C(C)C)Cc1ccccc1", "note": "(centres undefined)", "Potency": "inconclusive [inhibitor, partial curve, poor fit]"},
      {"compound": "CCCCOc1cccc(C2C(C(=O)c3ccc(C)o3)=C(O)C(=O)N2c2nnc(C)s2)c1", "note": "(centres undefined)", "Potency": "inconclusive [inhibitor, full curve, poor fit]"}
    ]}
  ]
}
